# Whole data set: some 110,000 compounds, median “z-score” near -0.1, cut for the highest 2% near 2. The list shows a part of the results. The source made the active and inactive calls.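 The calls were made as follows: active = z-score in the third read window above 3 or below -3; inactive = the rest.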
# Target: Metabotropic glutamate receptor 8 (Rattus norvegicus) (UniProt P70579)
# Experiment: mGluR8 Gi/Go-coupled signaling modulation – cell-based, rat, thallium flux, HTS, primary screen (AID 488969)
# Settings: HEK293 rat mGluR8, GIRK (G protein-gated inwardly rectifying potassium channel) thallium flux, FluoZin2; at 10 µM; stronger effect = higher value; submaximal glutamate (EC20) added with thallium
# Chain of UniProt P70579 (P70579 whole entry, looked up): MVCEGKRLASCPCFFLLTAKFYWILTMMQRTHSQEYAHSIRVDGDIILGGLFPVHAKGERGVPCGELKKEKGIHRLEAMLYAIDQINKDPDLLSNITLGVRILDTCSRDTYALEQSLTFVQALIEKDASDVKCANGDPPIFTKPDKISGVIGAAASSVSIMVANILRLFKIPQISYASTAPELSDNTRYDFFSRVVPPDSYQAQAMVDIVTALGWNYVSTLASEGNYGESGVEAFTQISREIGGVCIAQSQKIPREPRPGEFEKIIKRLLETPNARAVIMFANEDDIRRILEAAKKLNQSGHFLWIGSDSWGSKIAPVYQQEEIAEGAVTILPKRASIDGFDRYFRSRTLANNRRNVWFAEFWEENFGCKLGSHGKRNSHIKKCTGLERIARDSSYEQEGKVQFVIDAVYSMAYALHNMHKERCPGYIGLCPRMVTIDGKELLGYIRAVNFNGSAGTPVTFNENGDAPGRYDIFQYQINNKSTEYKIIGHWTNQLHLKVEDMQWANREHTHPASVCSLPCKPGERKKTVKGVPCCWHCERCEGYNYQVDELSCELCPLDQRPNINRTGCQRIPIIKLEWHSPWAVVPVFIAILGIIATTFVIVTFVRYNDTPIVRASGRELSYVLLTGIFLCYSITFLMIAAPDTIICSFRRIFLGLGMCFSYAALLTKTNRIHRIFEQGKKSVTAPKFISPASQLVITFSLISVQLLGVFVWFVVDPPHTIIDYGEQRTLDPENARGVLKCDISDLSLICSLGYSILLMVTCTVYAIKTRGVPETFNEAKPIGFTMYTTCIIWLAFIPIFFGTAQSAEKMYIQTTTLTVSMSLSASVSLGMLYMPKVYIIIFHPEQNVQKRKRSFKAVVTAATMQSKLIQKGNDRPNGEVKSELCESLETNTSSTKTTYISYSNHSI
row,Structure (SMILES),z-score
1,O=C(CSc1nnnn1-c1cccnc1)Nc1ccc(OCc2ccccc2)cc1,-0.183
2,COc1ccc(Cn2c(C)ccc2C)cc1,0.0636
3,CC1CN(Cc2ccccc2)c2nc3c(c(=O)n(C)c(=O)n3C)n2C1 (stereo not given),-0.166
4,CC1CCN(CCC(=O)Nc2ccc3c(c2)CCC3)CC1,0.34
5,CCN(CC)S(=O)(=O)c1cccc(NC(=O)C2SC(=Nc3ccc(C)cc3C)C(C(=O)NC(C)COC)=C2N)c1 (stereo not given),-0.161
6,O=C(NCC1OCCc2ccccc21)c1ccc(NC(=O)c2cccc(Br)c2)cc1 (stereo not given),-0.693
7,c1ccc2oc(C3=NNC(=NC4CC4)SC3)cc2c1,0.234
8,O=C(COc1ccccc1C(=O)N/N=C\c1ccc(O)c(O)c1)N/N=C/c1ccc(O)c(O)c1,-0.213
9,COc1cc2c3c(c1)c(C1=NC(=S)NC1=O)c(O)n3C(C)(C)C=C2C,0.00901
10,CN(C)S(=O)(=O)c1cccc(NC(=O)COC(=O)c2cccc(S(=O)(=O)N3CCc4ccccc4C3)c2)c1,0.242
11,COc1ccc(NS(=O)(=O)c2ccc(N3CCOCC3)c(NC(=O)c3ccccc3Cl)c2)cc1,-0.15
12,CCNc1nc(Oc2ccc(=O)n(-c3ccccc3)n2)nc(N(C)C)n1,0.025
13,O=C(Nc1ccc(S(=O)(=O)NCc2cccnc2)cc1)c1ccccc1Cl,-0.161
14,COc1ccc(CNC(=O)C2CCCN(S(=O)(=O)c3c(C)nn(C)c3C)C2)cc1 (stereo not given),0.876
15,COc1ccc(C(=O)NC(=S)NCCO)cc1Br,active: 4.72
16,CC(C)N(Cc1nc(-c2ccccc2)no1)C(=O)c1ccc(Br)o1,-0.82
17,CCCS(=O)(=O)N1CCN(c2ccccc2F)CC1,0.314
18,Cc1ccc(CCNC(=O)C23CN(Cc4ccccc4)CC2C(c2cccc([N+](=O)[O-])c2)=NO3)cc1 (stereo not given),-0.443
19,O=C(Nc1ccc2c(c1)OCO2)c1ccccc1SCC(=O)N1CCCC1,-1.45
20,O=C(OCc1cc(-c2ccccc2)no1)c1ccc2ccccc2n1,-0.167
21,CC(C)(C)c1ccc(C(=O)NNC(=O)Cc2ccccc2)cc1,0.216
22,O=C(O)CCN1C(=O)c2ccc(NC(=O)CSc3ccccc3)cc2C1=O,-0.205
23,COc1ccc(-c2nnn(CCC(=O)O)n2)cc1,-0.434
24,Nc1nonc1-c1nc2ccccc2n1CC(=O)N/N=C\c1ccc(-c2ccc(Cl)cc2)o1,-1.01
25,CCCC12CN3CC(C)(CN(C1)C3c1ccc(OC(C)C)cc1)C2=O (stereo not given),-0.246
26,CCOC(=O)c1ccc(N2C(=O)CC(N3CCC(O)(c4ccc(Br)cc4)CC3)C2=O)cc1 (stereo not given),0.185
27,O=S(=O)(c1ccc(Br)s1)N1CCc2ccccc2C1,-0.99
28,Cn1c(=O)[nH]c(=O)c2c1nc(CN1CCN(c3ccc(F)cc3)CC1)n2CCc1ccccc1,-0.85

row,Structure (SMILES),z-score
1,Cc1cc(C(=O)Nc2cccnc2)cs1,-0.072
2,COc1ccc(C(=O)CN2CCN(S(=O)(=O)c3cccc([N+](=O)[O-])c3)CC2)cc1,-2.48
3,Cc1cc(Cl)c(S(=O)(=O)N2CCSCC2)cc1OCC(=O)NC1CCCCC1,-0.118
4,CCc1ccc(OCC(=O)Nc2ccc(-c3cc4ccccc4oc3=O)c(OC)c2)cc1,1.19
5,Cc1cc(C)c(-n2c(C)cc(/C=C3/NC(=O)NC3=O)c2C)c(C)c1,2.07
6,Nc1c(N)c2ccccc2oc1=O,0.0652
7,COc1ccccc1NC(=O)Cc1noc(CSc2nnc(C)s2)n1,-0.388
8,CCCn1c(=NC(C)=O)c(C#N)cc2c(=O)n3cccc(C)c3nc21,-0.594
9,COc1ccc(S(=O)(=O)NCc2cccs2)cc1,-0.0134
10,O=C(Nc1ccc(S(=O)(=O)N2CCCCC2)cc1)c1ccc(CN2CCOCC2)cc1,-0.0617
11,CCOc1ccc2nc(/N=C/c3nc(-c4ccccc4)oc3O)sc2c1,0.486
12,O=C(CC(=O)c1ccccc1)Nc1ccc2c(c1)OCCO2,-0.987
13,N#CC(C#N)=NNc1ccc(S(=O)(=O)N2CCCC2)cc1,0.271
14,Cc1ccc(S(=O)(=O)Nc2cc(C(C(=O)OC(C)C)C(=O)C(F)(F)F)c(O)c3ccccc23)c(C)c1 (stereo not given),-0.651
15,Cc1ccc(NC(=O)c2cccc(N3C(=O)CCC3=O)c2)nc1,-0.269
16,O=C(Nc1nccs1)c1ccc(NC(=O)c2ccco2)cc1,-0.23
17,O=C(NCc1ccccn1)c1cc2cc(Br)ccc2oc1=O,0.154
18,COc1ccc(CN2C(=O)c3ccccc3C2C(=O)NCC2CCCO2)c(OC)c1 (stereo not given),-0.0786
19,O=C1C2C3C=CC(C3=C(c3ccccc3)c3ccccc3)C2C(=O)N1CCO (stereo not given),-0.246
20,O=C(NCc1ccc2c(c1)OCO2)C1CCN(c2ccc(S(=O)(=O)N3CCCC3)cc2)CC1,-0.597
21,COc1nccnc1NS(=O)(=O)c1ccc(NC(=S)NC(=O)c2ccc(F)cc2)cc1,-0.21
22,CSCC[C@H](NC(=O)c1ccc(Cl)c(S(=O)(=O)N2CCCC2)c1)c1nc2ccccc2[nH]1,-0.496
23,CCOC(=O)c1c(-c2ccccc2)csc1NC(=O)c1ccc(S(=O)(=O)N2CCOCC2)cc1,1.04
24,COc1cc2cc(C(c3nnnn3C3CCCC3)N3CCc4ccccc43)c(=O)[nH]c2cc1OC (stereo not given),1.39
25,FC(F)(F)c1nc(N2CCCC2)ncc1-c1nnnn1-c1ccccc1,-0.441
26,Cc1ccccc1C(=O)/C(C#N)=N/Nc1c(C)n(C)n(-c2ccccc2)c1=O,-0.305
27,N#Cc1ccc(NC(=O)COC(=O)C2=COCCO2)cc1,-0.532
